The values that follow come from PubChem BioAssay AID1508623 (National Center for Advancing Translational Sciences (NCATS), 2021).

SMILES strings stand for the structures. Hit rate of the full screen: of about 48,000 compounds, about 450 (0.94%) were called active. Inconclusive results (about 19%) are left out. Calls come from the whole dose curve; as a rule, active = well fitted inhibition curve with a large enough effect; inconclusive = small, poorly fitted or top-dose-only effect; inactive = no such curve, though single readings can be large or run the other way. Some of the results follow.

A short description of this experiment: Primary qHTS for Identification of Small Molecule Inhibitors of Huntingtin Promoter Activity. Note: nearly all actives have a fitted effect of over 50% in size. As to conditions: HEK293 HTT promoter firefly luciferase reporter (activity 0% = vehicle and -100% = no light), 24 h; series mostly up to 57.5 µM; activity change, negative = inhibition: at the top concentration. The method, boiled down:
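Luminescence was read after Dual-Glo reagent and a 10 min room-temperature incubation. Values were normalized to vehicle (0% activity) and zero RLU (-100% activity). Reporter HEK293 cells had been exposed to compounds (up to 57.5 uM final) for 24 h.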
For orientation: qHTS replaces the single test concentration by a dilution series.
For `Cc1cccc(C)c1NC(=O)Cn1c(=O)n(Cc2ccccc2)c(=O)c2c(C)c(C(=O)N(C)C)sc21`, the “activity change, negative = inhibition” value is inactive: -13.1%.
For the molecule `Cc1ccc(Cl)cc1-n1c(=O)cc(N2CCN(c3ccc(F)cc3)CC2)[nH]c1=O`, the “activity change, negative = inhibition” value is inactive: -24.7%.
`Cc1cc(C)c2oc(C(=O)Nc3ccc(S(=O)(=O)N4CCCCC4)cc3)cc(=O)c2c1`: the “activity change, negative = inhibition” value is inactive: 19.6%.
As for `CC(=O)N(Cc1cccnc1)c1nc2c(F)cc(F)cc2s1`, the “activity change, negative = inhibition” value was inactive: -21.1%.
For `Cn1c(=O)c2c(-c3ccc(Cl)cc3)n(Cc3ccccc3)cc2n(C)c1=O` the value was inactive: -23.1%.
For `O=C(O)Cn1nnc(-c2ccc(OCc3cccc(C(F)(F)F)c3)cc2)n1` the value was inactive: -6.8%; for `CCOC(=O)c1cc(S(=O)(=O)Nc2ccc(C)cc2Cl)[nH]n1`, inactive: -7.99%.
As for `O=C(CSc1nccn1Cc1ccco1)Nc1ccc(F)cc1`, the figure is inactive: -3.68%; as for `COc1ccc(CNC(=O)CSc2nc3ccccc3nc2Cc2ccccc2)cc1`, inactive: -19.6%; as for `COc1ccc(Cn2c(CCC(=O)NCc3cccc(Cl)c3)nc3cccnc32)cc1`, inactive: -18.1%.
Consider `COc1cccc(/C=C/c2nc(C#N)c(NCCN(C)C)o2)c1`, for which the “activity change, negative = inhibition” value was inactive: -13.4%.
As for `CCc1ccc(NC(=O)Cc2c(C(=O)O)c(C)cn2C)cc1`, the figure is inactive: -7.7%; as for `Cc1ccccc1Nc1c(-c2ccc(Br)o2)nc2ccc(Cl)cn12`, inactive: -24%.
For `COc1cc(OC)c(NC(=O)c2cc(C)nc3c2c(C)nn3-c2ccc(C)cc2)cc1Cl` the value was inactive: -3.1%.
As for `Cc1ccc(NC(=O)CCN2CCN(CCO)CC2)cc1C`, the figure is inactive: -6.47%; as for `COc1ccc(CCNC(=O)c2ccc3c(c2)N(Cc2ccc(Cl)cc2)C(=O)c2ccccc2S3)cc1OC`, inactive: -27.1%.
For `CCOc1ccc(-c2nn(CC(=O)NC3CCCC3)c3c2cnc2ccc(C)cc23)cc1`, the “activity change, negative = inhibition” value is inactive: -23%.
For `CCN(Cc1nc(-c2ccc(OC)cc2)oc1C)S(=O)(=O)c1ccc(C)cc1` the value was inactive: -5.61%; for `CC(=O)c1ccc(NC(=O)Cn2c(-n3nc(C)cc3C)nc(C)c(C)c2=O)cc1`, inactive: -19.1%; for `CCOc1ccccc1Nc1nnc(-c2cc3cc(OC)ccc3oc2=O)s1`, inactive: 12.1%.
Consider `CCOC(=O)Cc1ccc(NC(=O)N2CCC(CN3CCCCCC3)CC2)cc1`, for which the “activity change, negative = inhibition” value is inactive: -8.22%.
As for `CCc1ccc(Oc2c(C(F)(F)F)oc3c(CN4CCC(C)CC4)c(O)ccc3c2=O)cc1`, the figure is inactive: -9.67%.
For `COc1cccc(CSc2nc3n(n2)C(CC(C)C)C(C(=O)Nc2ccccc2OC)=C(C)N3)c1` (centres undefined) the value was inactive: -7.46%.
For `CCCCN(CC)CCCNC(=O)Cn1ncc2c3ccccc3n(C)c2c1=O` the value was inactive: 10.8%.
As for `COc1ccc(C(=O)N2CCC(C(=O)Nc3ccc(Cl)cc3)CC2)cc1`, the “activity change, negative = inhibition” value is inactive: -30.1%.
As for `Cc1cc(=O)n2nc(N(C)CC(=O)NCc3cccc(Br)c3)sc2n1`, the figure is inactive: -9.18%.
As for `CCOc1ccc(OCC)c(NC(=O)Cn2nc(CC)n3c(cc4sccc43)c2=O)c1`, the figure is inactive: 1.61%.
For `Cc1ccc(/C(=C\CN2CCCC2)c2ccccn2)cc1` the value was inactive: -13%.
As for `Cc1nc2ccc(S(=O)(=O)N(CC(=O)Nc3cccc(F)c3)Cc3ccccc3)cc2s1`, the “activity change, negative = inhibition” value was inactive: -26.7%.
For `CC(C)CCn1c(=O)c2sccc2n2c(CCCC(=O)NCCc3ccccc3)nnc12` the value was inactive: -10.6%; for `O=C1CC(c2ccccc2)c2c(n3ncnc3[nH]c2=O)N1` (centres undefined), inactive: -4.2%; for `C[C@@H](O)[C@H](N)C(=O)O`, inactive: -6.36% [at 25.2 µM].
With `CC(C)N(C)C1CCN(S(=O)(=O)c2ccc3[nH]c(=O)ccc3c2)CC1`, the “activity change, negative = inhibition” value was inactive: -6.98%.
As for `Cc1cccc(NC(=O)C2CCN(c3nc4ccccc4[nH]3)CC2)c1C`, the figure is inactive: -3.38%; as for `O=C(Nc1ccc2nc(SCC(=O)N3CCCC3)sc2c1)c1cccc(Br)c1`, inactive: -17.9%; as for `Cc1ccc(C)c(CNC(=O)CCn2cccn2)c1`, inactive: 0.653%.
For `Cc1cc(C)cc(N2C(=O)CSC23C(=O)N(CC(=O)Nc2ccc(F)cc2F)c2ccccc23)c1` (centres undefined) the value was inactive: -22.1%; for `CCCCc1nn2c(=O)cc(COC(=O)c3ccc(NC(=O)CCc4ccccc4)cc3)nc2s1`, inactive: -9.83%; for `CCCCN(C)S(=O)(=O)c1ccc(C(=O)Nc2sc3c(c2C(N)=O)CC(C)(C)NC3(C)C)cc1`, inactive: -12.2%.
For `CCCc1ccc(-c2ccc(C(=O)Oc3ccc(OCC)cc3)cc2)nc1`, the “activity change, negative = inhibition” value is inactive: 2.11%.
For `Cc1ccc(CCNC(=O)CS(=O)Cc2nc(-c3ccccc3C)oc2C)cc1` (centres undefined) the value was inactive: -27.1%; for `CCN(Cc1ccccc1)C(=O)Cn1c(=O)n(-c2ccc(Cl)cc2)c(=O)c2c(C)c(C(=O)N(C)C)sc21`, inactive: 2.58%.
For `O=C(Cn1cnc2c(oc3ccccc32)c1=O)Nc1ccc(F)cc1F` the value was inactive: 2.4%; for `O=C(CSc1nc2c(oc3ccccc32)c(=O)n1Cc1ccco1)Nc1ccccc1Cl`, inactive: -15.8%; for `O=C(Cn1ncc2c3ccccc3n(Cc3cccc(Cl)c3)c2c1=O)NCc1cccs1`, inactive: -12.3%.
For `CCCc1ncc(C(=O)O)s1` the value was inactive: 4.52%; for `CCc1ccc(OCc2nc(-c3ccc(OC)cc3)no2)c(Br)c1`, inactive: -12.5%; for `O=C(Nc1nc2ccccc2s1)c1ccc(S(=O)(=O)N2CCCC2)cc1`, inactive: 21.8%.
Regarding `COc1ccc(CNC(=O)CSc2nc(-c3ccc(OC)c(OC)c3)cc(C(F)(F)F)n2)cc1`, the “activity change, negative = inhibition” value is inactive: -17.9%.
For `CCCC12CN3CC(CCC)(CN(C1)C3c1ccccc1)C2=O` (centres undefined) the value was inactive: -20.9%; for `CCS(=O)(=O)c1nc(S(=O)(=O)c2ccc(C)cc2)c(NCCCOC)s1`, inactive: -8.31%.
For `Cc1cc2oc3c(c(=O)c2cc1C)C1(C(=O)N(C)c2ccccc21)N(CCO)C3=O` (centres undefined) the value was inactive: -15.4%; for `CCn1c(CNC(=O)c2ccc(OC)cc2)nnc1SCC(=O)Nc1ccc(C)cc1`, inactive: -12.1%; for `Nc1cc(=O)nc(SCC(=O)Nc2ccc(F)cc2)n1CCc1ccccc1`, inactive: -15.5% [at 11.5 µM].
As for `COc1ccc(N2CC(NC(=O)c3ccco3)CC2=O)cc1` (centres undefined), the figure is inactive: 3.58%; as for `O=C(Nc1ccccc1Br)C(Cc1ccccc1)NS(=O)(=O)c1cccc2nsnc12` (centres undefined), inactive: -29.1%; as for `COc1ccccc1NC(=O)C1CCN(C(=O)c2sc3nc[nH]c(=O)c3c2C)CC1`, inactive: 1.18%.
For `CC(=O)c1ccc(NC(=O)c2ccc(-c3ccc(Cl)cc3)o2)cc1`, the “activity change, negative = inhibition” value is inactive: 13%.
For `CCN(CC)CCNC(=O)c1ccc2nc(CCc3ccccc3)oc2c1` the value was inactive: 23.3%; for `Cc1cccc(CCNC(=O)CCc2c(C)nc3c4c(C)cc(C)nc4nn3c2C)c1`, inactive: -13.5%; for `COc1ccc(CNC(=O)Cn2ncc3c([nH]c4ccccc43)c2=O)cc1`, inactive: -2.11%.
Consider `CCc1cccc(C)c1NC(=O)Cn1c(=O)cc(C)c2c(C)nn(-c3cccc(F)c3)c21`, for which the “activity change, negative = inhibition” value was inactive: -24.5%.
As for `COc1ccccc1N1CCN(c2cc(C)nc3nc(-c4ccc(C)cc4)nn23)CC1`, the figure is inactive: -9.23%.
For the molecule `O=C(NCc1ccc(F)cc1)c1ccc(Nc2nc3ccccc3n3nnnc23)cc1`, the “activity change, negative = inhibition” value was inactive: 0.895%.
